# From the supplement of paper PMC8728848
# This is one part of the list.
# Tests used:
# Test in all cases: glycan array binding signal (z-score within array); higher = stronger binding
# Conditions in all cases: glycan notation: IUPAC condensed, linker removed
# Gal(b1-4)Glc = molecular target: Gal(b1-4)Glc
# Procedure, shortened: (§1)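 The binding signal is a Z-score computed within each array and averaged over linkers. Arrays of the same protein sequence at different concentrations or buffers were also averaged together. Data originate from 3228 arrays in the Consortium for Functional Glycomics database, kept only where the protein sequence was available.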
# Gal(b1-4)Glc6S = molecular target: Gal(b1-4)Glc6S
# Procedure, shortened: as §1
# Gal(b1-4)GlcNAc = molecular target: Gal(b1-4)GlcNAc
# Procedure, shortened: as §1
# [1] = molecular target: Gal(b1-4)GlcNAc(a1-6)Gal(b1-4)GlcNAc
# Procedure, shortened: as §1
# Gal(b1-4)GlcNAc(b1-2)Man = molecular target: Gal(b1-4)GlcNAc(b1-2)Man
# Procedure, shortened: as §1
# [2] = molecular target: Gal(b1-4)GlcNAc(b1-2)Man(a1-3)Man(b1-4)GlcNAc(b1-4)GlcNAc
# Procedure, shortened: as §1
# [3] = molecular target: Gal(b1-4)GlcNAc(b1-2)Man(a1-3)[Gal(b1-4)GlcNAc(b1-2)Man(a1-6)]Man(b1-4)GlcNAc(b1-4)GlcNAc
# Procedure, shortened: as §1
# [4] = molecular target: Gal(b1-4)GlcNAc(b1-2)Man(a1-3)[Gal(b1-4)GlcNAc(b1-2)Man(a1-6)]Man(b1-4)GlcNAc(b1-4)[Fuc(a1-6)]GlcNAc
# Procedure, shortened: as §1
# [5] = molecular target: Gal(b1-4)GlcNAc(b1-2)Man(a1-3)[Gal(b1-4)GlcNAc(b1-2)Man(a1-6)][Gal(b1-4)GlcNAc(b1-4)]Man(b1-4)GlcNAc(b1-4)[Fuc(a1-6)]GlcNAc
# Procedure, shortened: as §1
# [6] = molecular target: Gal(b1-4)GlcNAc(b1-2)Man(a1-3)[Gal(b1-4)GlcNAc(b1-2)Man(a1-6)][GlcNAc(b1-4)]Man(b1-4)GlcNAc(b1-4)[Fuc(a1-6)]GlcNAc
# Procedure, shortened: as §1
# [7] = molecular target: Gal(b1-4)GlcNAc(b1-2)Man(a1-3)[GlcNAc(b1-2)Man(a1-6)]Man(b1-4)GlcNAc(b1-4)GlcNAc
# Procedure, shortened: as §1
# [8] = molecular target: Gal(b1-4)GlcNAc(b1-2)Man(a1-3)[GlcNAc(b1-4)][Gal(b1-4)GlcNAc(b1-2)Man(a1-6)]Man(b1-4)GlcNAc(b1-4)GlcNAc
# Procedure, shortened: as §1
# [9] = molecular target: Gal(b1-4)GlcNAc(b1-2)Man(a1-3)[Man(a1-6)]Man(b1-4)GlcNAc(b1-4)GlcNAc
# Procedure, shortened: as §1
# [10] = molecular target: Gal(b1-4)GlcNAc(b1-2)Man(a1-6)Man(b1-4)GlcNAc(b1-4)GlcNAc
# Procedure, shortened: as §1
# [11] = molecular target: Gal(b1-4)GlcNAc(b1-2)Man(a1-6)[GlcNAc(b1-2)Man(a1-3)]Man(b1-4)GlcNAc(b1-4)GlcNAc
# Procedure, shortened: as §1
# [12] = molecular target: Gal(b1-4)GlcNAc(b1-2)Man(a1-6)[Man(a1-3)]Man(b1-4)GlcNAc(b1-4)GlcNAc
# Procedure, shortened: as §1
# [13] = molecular target: Gal(b1-4)GlcNAc(b1-2)[Gal(b1-4)GlcNAc(b1-4)]Man(a1-3)[Gal(b1-4)GlcNAc(b1-2)Man(a1-6)]Man(b1-4)GlcNAc(b1-4)GlcNAc
# Procedure, shortened: as §1
# [14] = molecular target: Gal(b1-4)GlcNAc(b1-2)[Gal(b1-4)GlcNAc(b1-4)]Man(a1-3)[Gal(b1-4)GlcNAc(b1-2)[Gal(b1-4)GlcNAc(b1-6)]Man(a1-6)]Man(b1-4)GlcNAc(b1-4)GlcNAc
# Procedure, shortened: as §1
# [15] = molecular target: Gal(b1-4)GlcNAc(b1-2)[Gal(b1-4)GlcNAc(b1-4)]Man(a1-3)[GlcNAc(b1-4)][Gal(b1-4)GlcNAc(b1-2)Man(a1-6)]Man(b1-4)GlcNAc(b1-4)GlcNAc
# Procedure, shortened: as §1
# [16] = molecular target: Gal(b1-4)GlcNAc(b1-2)[Gal(b1-4)GlcNAc(b1-4)]Man(a1-3)[GlcNAc(b1-4)][Gal(b1-4)GlcNAc(b1-2)[Gal(b1-4)GlcNAc(b1-6)]Man(a1-6)]Man(b1-4)GlcNAc(b1-4)GlcNAc
# Procedure, shortened: as §1
# [17] = molecular target: Gal(b1-4)GlcNAc(b1-2)[Gal(b1-4)GlcNAc(b1-6)]Man(a1-6)[Gal(b1-4)GlcNAc(b1-2)Man(a1-3)]Man(b1-4)GlcNAc(b1-4)GlcNAc
# Procedure, shortened: as §1
# [18] = molecular target: Gal(b1-4)GlcNAc(b1-2)[Gal(b1-4)GlcNAc(b1-6)]Man(a1-6)[Gal(b1-4)GlcNAc(b1-2)Man(a1-3)]Man(b1-4)GlcNAc(b1-4)[Fuc(a1-6)]GlcNAc
# Procedure, shortened: as §1
binder,measurement,setting,value
FimA-N1 (Actinomyces oris) (protein) MHHHHHHSSGVDLGTENLYFQSNATETPNYGNIKTDATGSLVIHKHLTGGGKDIGTPTGTAQNADDKGPAVEGVVFTAYPITDINLKDPAGWDTISNLSRTGVPDSACANPAAPTLGAHQFGTPKVSPATTKEGLATITEMPVQAYLVCETTTPGDIVQKAKPFVVTIPHPNTAAGADGQWIYDVNVYPKNEAIDVDKTIQAQK,glycan array binding signal (z-score),Gal(b1-4)Glc,0.048
same,glycan array binding signal (z-score),Gal(b1-4)Glc6S,-0.211
same,glycan array binding signal (z-score),Gal(b1-4)GlcNAc,-0.171
same,glycan array binding signal (z-score),[1],-0.075
same,glycan array binding signal (z-score),Gal(b1-4)GlcNAc(b1-2)Man,-0.271
same,glycan array binding signal (z-score),[2],0.25
same,glycan array binding signal (z-score),[3],0.094
same,glycan array binding signal (z-score),[4],-0.016
same,glycan array binding signal (z-score),[5],-0.335
same,glycan array binding signal (z-score),[6],-0.333
same,glycan array binding signal (z-score),[7],-0.099
same,glycan array binding signal (z-score),[8],-0.179
same,glycan array binding signal (z-score),[9],-0.453
same,glycan array binding signal (z-score),[10],-0.363
same,glycan array binding signal (z-score),[11],-0.528
same,glycan array binding signal (z-score),[12],-0.16
same,glycan array binding signal (z-score),[13],-0.433
same,glycan array binding signal (z-score),[14],-0.483
same,glycan array binding signal (z-score),[15],0.043
same,glycan array binding signal (z-score),[16],1.32
same,glycan array binding signal (z-score),[17],-0.435
same,glycan array binding signal (z-score),[18],-0.118
